Reference: patent publication US5711947A, “Method to induce cytotoxic T Lymphocytes specific for a broad array of HIV-1 isolates using hybrid synthetic peptides” (The United States of America as represented by the …, priority 1993, dated 1998)
Entries after “also recorded” stand apart in the source; their conditions may differ. Like-named read-outs stand apart in the source and are kept apart here. At least one peptide structure holds a part that was inferred or is arguable (an end, a ring closure or a residue). Some compounds share one wording; it may come from a single statement. Where no end group is shown, it is not given here.

Tests used:
[1] = tested on: IIIB-specific CTL; assay type: cell-based, BALB/c (H-2 d) mice; details: for Specific lysis (%) IIIB-specific CTL: effector to target ratio 10:1; for Lysis of targets sensitized with substituted MN peptide by IIIB-specific CTL line (FIG. 1, in words): BALB/c 3T3 fibroblast targets, effector to target ratio 5 to 1; for Lysis of cells incubated with the isolate peptide by CTL raised only against the IIIB isolate: see Table 1, label = target-sensitizing peptide
[2] = tested on: MN-specific CTL; assay type: cell-based, BALB/c (H-2 d) mice; details: for Specific lysis (%) MN-specific CTL: effector to target ratio 10:1; for Crossreactive killing of peptide-incubated targets by MN-specific CTL (in words): summary of Table 1; for Reduction of ability to sensitize targets compared to 18MN (FIG. 2B): MN-specific CTL line, peptide titration; for Reduction of ability to sensitize targets compared to 18MN (FIG. 2B) / Lysis of targets sensitized with substituted MN peptide by MN-specific CTL line (FIG. 1, in words): effector to target ratio 5 to 1; for Lysis of targets sensitized with substituted MN peptide by MN-specific CTL line (FIG. 1, in words): BALB/c 3T3 fibroblast targets
[3] = tested on: RF-specific CTL; assay type: cell-based, BALB/c (H-2 d) mice; details: effector to target ratio 10:1
[4] = tested on: IIIB-gp160 primed immune spleen cells; assay type: cell-based, mice; details: for Lysis of targets sensitized with the peptide by CTL restimulated with 18MN (Y-V), 18MN (Y-I) or 18MN (Y-L) (FIGS. 3B-D, in words): IIIB-gp160 primed spleen cells, label = target-sensitizing peptide; for Breadth of CTL specificity generated by restimulation with the peptide (FIG. 3, in words): vSC25 (IIIB-gp160) primed spleen cells restimulated 6 days with 1 μM peptide plus IL-2, label = restimulating peptide

Row | Compound | Specific lysis (%) IIIB-specific CTL ([1]; peptide 1 μM) [%] | Specific lysis (%) IIIB-specific CTL ([1]; peptide 10 μM) [%] | Specific lysis (%) MN-specific CTL ([2]; peptide 1 μM) [%] | Specific lysis (%) MN-specific CTL ([2]; peptide 10 μM) [%] | Specific lysis (%) RF-specific CTL ([3]; peptide 1 μM) [%] | Specific lysis (%) RF-specific CTL ([3]; peptide 10 μM) [%] | also measured
1 | CC[C@H](C)[C@H](NC(=O)[C@H](CO)NC(=O)[C@@H](NC(=O)[C@@H](N)CO)[C@@H](C)CC)C(=O)NCC(=O)N1CCC[C@H]1C(=O)NCC(=O)N[C@@H](CCCNC(=N)N)C(=O)N[C@@H](C)C(=O)N[C@@H](Cc1ccccc1)C(=O)N[C@@H](Cc1ccccc1)C(=O)N[C@@H](C)C(=O)N[C@H](C(=O)N[C@H](C(=O)N[C@@H](CC(=O)O)C(=O)O)[C@@H](C)O)[C@@H](C)O [Z321] | -1.2 | -0.3 | 18.0 | 30.3 | 0.6 | 2.5 | Crossreactive killing of peptide-incubated targets by MN-specific CTL (in words) [2]: crossreactively kill; also recorded: strongly recognize
2 | GIAIGPGRTLYAREK [NY5] | -0.7 | -0.4 | 1.0 | 10.2 | -0.2 | 1.4 | Crossreactive killing of peptide-incubated targets by MN-specific CTL (in words) [2]: weakly
3 | GIHFGPGQALYTTGI [MAL] | -2.3 | 0.2 | -2.4 | -1.4 | 1.9 | 2.9 | 
4 | RIHIGPGRAFFTTKN [18MN (Y-F), R I H I G P G R A F F T T K N] |  |  |  |  |  |  | Lysis of targets sensitized with the peptide by CTL restimulated with 18MN (Y-V), 18MN (Y-I) or 18MN (Y-L) (FIGS. 3B-D, in words) [4]: crossreactively lyse; Reduction of ability to sensitize targets compared to 18MN (FIG. 2B) [2]: approximately 10 fold; Lysis of targets sensitized with substituted MN peptide by MN-specific CTL line (FIG. 1, in words) ([2]; peptide 10 μM): strongly lyse
5 | RIHIGPGRAFHTTKN [18MN (Y-H), R I H I G P G R A F H T T K N] |  |  |  |  |  |  | Reduction of ability to sensitize targets compared to 18MN (FIG. 2B) [2]: ~30 fold; Lysis of targets sensitized with substituted MN peptide by MN-specific CTL line (FIG. 1, in words) ([2]; peptide 10 μM): strongly lyse
6 | RIHIGPGRAFITTKN [18MN (Y-I), R I H I G P G R A F I T T K N] |  |  |  |  |  |  | Lysis of targets sensitized with substituted MN peptide by IIIB-specific CTL line (FIG. 1, in words) ([1]; peptide 10 μM): can also recognize; Breadth of CTL specificity generated by restimulation with the peptide (FIG. 3, in words) [4]: significantly broader specificity
7 | RIHIGPGRAFKTTKN [18MN (Y-K), R I H I G P G R A F K T T K N] |  |  |  |  |  |  | Lysis of targets sensitized with the peptide by CTL restimulated with 18MN (Y-V), 18MN (Y-I) or 18MN (Y-L) (FIGS. 3B-D, in words) [4]: crossreactively lyse
8 | RIHIGPGRAFLTTKN [18MN (Y-L), R I H I G P G R A F L T T K N] |  |  |  |  |  |  | Lysis of targets sensitized with substituted MN peptide by IIIB-specific CTL line (FIG. 1, in words) ([1]; peptide 10 μM): can also recognize; Breadth of CTL specificity generated by restimulation with the peptide (FIG. 3, in words) [4]: significantly broader specificity
9 | RIHIGPGRAFPTTKN [18MN (Y-P), R I H I G P G R A F P T T K N] |  |  |  |  |  |  | Reduction of ability to sensitize targets compared to 18MN (FIG. 2B) [2]: ~30 fold; Lysis of targets sensitized with substituted MN peptide by MN-specific CTL line (FIG. 1, in words) ([2]; peptide 10 μM): strongly lyse
10 | RIHIGPGRAFQTTKN [18MN (Y-Q), R I H I G P G R A F Q T T K N] |  |  |  |  |  |  | Lysis of targets sensitized with the peptide by CTL restimulated with 18MN (Y-V), 18MN (Y-I) or 18MN (Y-L) (FIGS. 3B-D, in words) [4]: more weakly
11 | RIHIGPGRAFRTTKN [18MN (Y-R), R I H I G P G R A F R T T K N] |  |  |  |  |  |  | Lysis of targets sensitized with the peptide by CTL restimulated with 18MN (Y-V), 18MN (Y-I) or 18MN (Y-L) (FIGS. 3B-D, in words) [4]: crossreactively lyse; Lysis of targets sensitized with substituted MN peptide by MN-specific CTL line (FIG. 1, in words) ([2]; peptide 10 μM): fails to lyse
12 | RIHIGPGRAFVTTKN [18MN (Y-V), R I H I G P G R A F V T T K N] |  |  |  |  |  |  | Sensitization potency relative to 18IIIB, times less active (FIG. 2A) [1]: within ten-fold; Lysis of targets sensitized with substituted MN peptide by IIIB-specific CTL line (FIG. 1, in words) ([1]; peptide 10 μM): strongly lyse; Lysis of targets infected with recombinant vaccinia viruses expressing gp160 by CTL restimulated with the peptide (in words) [4]: lyse targets infected with recombinant vaccinia viruses vIIIB (vSC25) and vMN; Breadth of CTL specificity generated by restimulation with the peptide (FIG. 3, in words) [4]: significantly broader specificity
13 | RIHIGPGRAFWTTKN [18MN (Y-W), R I H I G P G R A F W T T K N] |  |  |  |  |  |  | Lysis of targets sensitized with the peptide by CTL restimulated with 18MN (Y-V), 18MN (Y-I) or 18MN (Y-L) (FIGS. 3B-D, in words) [4]: more weakly; Reduction of ability to sensitize targets compared to 18MN (FIG. 2B) [2]: 100 fold; Lysis of targets sensitized with substituted MN peptide by MN-specific CTL line (FIG. 1, in words) ([2]; peptide 10 μM): moderately lyse
14 | RTPTGLGQSLYTTRS [ELI] | -0.6 | 0.4 | -2.5 | -0.5 | 0.9 | 2.1 | 
15 | RVTLGPGRVWYTTGE [CDC4] | -2.0 | 0.0 | -1.5 | 1.0 | -0.2 | 2.6 | 
16 | SIHIGPGRAFYATGD [SC] | -1.6 | 0.2 | 42.2 | 46.2 | -0.6 | 3.0 | Crossreactive killing of peptide-incubated targets by MN-specific CTL (in words) [2]: crossreactively kill; also recorded: strongly recognize
17 | SIRIGPGKVFTAKGG [Z3] | -2.3 | 0.5 | -1.2 | -1.7 | 4.0 | 1.5 | 
18 | SITKGPGRVIYATGQ [RF] | -1.2 | 0.3 | -1.2 | -0.9 | 40.4 | 38.5 | Lysis of cells incubated with the isolate peptide by CTL raised only against the IIIB isolate [1]: < 1%; Specific lysis of cells incubated with the isolate peptide by CTL from gp160 IIIB vaccinia priming and 18MN (Y-V) boosting [4]: 26%
19 | SIYIGPGRAFHTTGR [SF2] | -0.4 | 0.3 | 13.8 | 25.9 | 0.4 | 1.6 | Lysis of cells incubated with the isolate peptide by CTL raised only against the IIIB isolate [1]: < 1%; Specific lysis of cells incubated with the isolate peptide by CTL from gp160 IIIB vaccinia priming and 18MN (Y-V) boosting [4]: 12%; Crossreactive killing of peptide-incubated targets by MN-specific CTL (in words) [2]: crossreactively kill; also recorded: strongly recognize
20 | SLSIGPGRAFRTREI [WMJ-2] | -1.2 | 0.7 | -1.0 | 4.2 | -0.1 | 1.8 | Lysis of cells incubated with the isolate peptide by CTL raised only against the IIIB isolate [1]: < 1%; Specific lysis of cells incubated with the isolate peptide by CTL from gp160 IIIB vaccinia priming and 18MN (Y-V) boosting [4]: 7%; Crossreactive killing of peptide-incubated targets by MN-specific CTL (in words) [2]: not; Crossreactive killing of peptide-incubated targets by MN-specific CTL (in words) ([2]; listed as 18WMJ-2): do not show crossreactivity
21 | STPIGLGQALYTTRG [Z6] | -1.7 | -0.6 | -2.7 | -2.1 | -0.9 | -0.7 | 
22 | STPIGLGQALYTTRI [JY1] | -2.3 | 0.3 | -1.6 | 1.2 | 1.7 | 0.1 | 
